Results published in the supplement of paper PMC8183993.
“And” between values parts separate entries of the source, which are not always exact repeats. Equal entries are not always repeated. Structures can show the parent of a compound that is named as a salt. ± gives the standard deviation of the averaged measurements. Over roughly 3,100 compounds, “mean cytoplasmic OPP incorporation (global translation) relative to DMSO” has its median near 100; the lowest 2% begin near 56. The list shows a part of the results. Square brackets hold non-standard residues; d marks the D form. Peptide text beside a SMILES is read from it. * marks the point of attachment. Sta = CC(C)C[C@H](N)[C@@H](O)CC(=O)O; Isovaleryl = CC(C)CC(=O)*

What follows are compounds tested on U2OS (assay: mean cytoplasmic OPP incorporation (global translation) relative to DMSO (% of DMSO); higher = more protein synthesis). Settings: 10 µM; 24 h.
Procedure: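 Primary image-based screen in U2OS cells: compounds at 10 uM for 24 h, then a 1 h o-propargyl-puromycin (OPP) pulse, click labelling, and high-throughput microscopy. Mean cytoplasmic OPP intensity and nuclei count were normalised to DMSO wells within each plate (DMSO = 100) and averaged over triplicate plates.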

Structure (SMILES) | mean cytoplasmic OPP incorporation
CCCC(CCC)C(=O)NO [Valproic acid hydroxamate] | 110
Cc1cc(/C(=C/Nc2ccc(Cl)cc2)C(=O)Nc2ccc(Cl)cc2)on1 | 99.7
Oc1ccc(OCc2ccccc2)cc1 [Monobenzone] | 86.1
CNC(=O)c1cc(COc2nnc(Nc3ccc(Cl)cc3)c3ccoc23)ccn1 [Telatinib (BAY 57-9352)] | 109
CCCc1nc(C)c2c(=O)nc(-c3cc(S(=O)(=O)N4CCN(CC)CC4)ccc3OCC)[nH]n12 [Vardenafil Hydrochloride Trihydrate (Vivanza)] | 117
CCCc1nc(C)c2c(=O)nc(-c3cc(S(=O)(=O)N4CCN(CC)CC4)ccc3OCC)[nH]n12 [Vardenafil] | 109
O=C(O)/C=C/c1ccc(Cn2ccnc2)cc1 [Ozagrel hydrochloride] | 103.5 ± 0.18
COc1cc2nccc(Oc3ccc(NC(=O)C4(C(=O)Nc5ccc(F)cc5)CC4)cc3)c2cc1OC [XL-184 free base (Cabozantinib)] | 106
COc1cc2nccc(Oc3ccc(NC(=O)C4(C(=O)Nc5ccc(F)cc5)CC4)cc3)c2cc1OC [Cabozantinib malate] | 102
CCOc1nc2cccc(C(=O)O)c2n1Cc1ccc(-c2ccccc2-c2noc(=O)[nH]2)cc1 [Azilsartan (TAK-536)] | 88.7
COCCOC(=O)C1=C(C)NC(C)=C(C(=O)OC/C=C/c2ccccc2)C1c1cccc([N+](=O)[O-])c1 (stereo unspecified) [Cilnidipine] | 103 ± 9.3
CCCCNc1ccc(C(=O)OCCOCCOCCOCCOCCOCCOCCOCCOCCOC)cc1 [Benzonatate] | 113
Cc1cc([C@@H](C)Nc2ccccc2C(=O)O)c2nc(N3CCOCC3)cc(=O)n2c1 | 99.5
O=C1c2ccccc2C(Cc2ccnc(F)c2)(Cc2ccnc(F)c2)c2ccccc21 | 98.4
CCCCN1CCC(CCC(=O)c2cc(Cl)c(N)cc2OC)CC1 | 111
Cc1cc(/C=C/c2ccc3cc(N(C)C)ccc3[n+]2C)c(C)n1-c1ccccc1 [Pyrvinium pamoate] | 22
CCn1nc(C(=O)O)c(=O)c2cc3c(cc21)OCO3 [Cinoxacin] | 104
CC[C@H]1OC(=O)[C@H](C)[C@@H](O[C@H]2C[C@@](C)(OC)[C@@H](O)[C@H](C)O2)[C@H](C)[C@@H](O[C@@H]2O[C@H](C)C[C@H](N(C)C)[C@H]2O)[C@](C)(O)C[C@@H](C)[C@@H]2N[C@@H](COCCOC)O[C@H]([C@H]2C)[C@]1(C)O [Dirithromycin] | 103
CC(C)c1cc(-c2ccc(F)c3ccccc23)nc(N)n1 | 103
O=C(NOC[C@H](O)CO)c1ccc(F)c(F)c1Nc1ccc(I)cc1F | 93.8
Cc1cc(C)c(/C=C2\C(=O)Nc3ccccc32)[nH]1 | 88.6
Cc1cc(C)c(/C=C2\C(=O)Nc3ccccc32)[nH]1 [Semaxanib (SU5416)] | 89.7
CCn1ccnc1CC1COc2ccccc2O1 (stereo unspecified) [Imiloxan hydrochloride] | 91.2
CNC(C)C1CCC(N)C(OC2C(N)CC(N)C(OC3OCC(C)(O)C(NC)C3O)C2O)O1 (stereo unspecified) [Gentamycin sulfate (Gentacycol)] | 107

Structure (SMILES) | mean cytoplasmic OPP incorporation
Cc1c(F)cc(C(=O)NC2CC2)cc1-c1ccc(C(=O)NCC(C)(C)C)cn1 [Losmapimod] | 99.2
COc1ccc(S(=O)(=O)N(C(C)=O)c2ccccc2/C=C/c2cc[n+]([O-])cc2)cc1 | 89.5 ± 5.8
Nc1nc(NCCc2ccc(O)cc2)nc2nc(-c3ccco3)nn12 | 99.2
O=C(/C=C/c1ccc(CN(CCO)CCc2c[nH]c3ccccc23)cc1)NO [LAQ824 (NVP-LAQ824, Dacinostat)] | 47.7
O=c1cc[nH]c(=S)[nH]1 [2-Thiouracil] | 101
CC(C)CC(=O)N[C@H](C(=O)N[C@H](C(=O)N[C@@H](CC(C)C)[C@@H](O)CC(=O)N[C@@H](C)C(=O)N[C@@H](CC(C)C)[C@@H](O)CC(=O)O)C(C)C)C(C)C [Pepstatin A] (Isovaleryl-VV[Sta]A[Sta]-OH) | 101.8 ± 0.43
N[C@H](C(=O)O)c1cc(O)cc(O)c1 | 102
Cc1cccc(C#Cc2ccccc2)n1 [MPEP hydrochloride] | 103
c1ccc(C(NCc2cccnc2)(c2ccccc2)c2ccccc2)cc1 | 104
C[C@H](O)C(=O)Nc1c(I)c(C(=O)NC(CO)CO)c(I)c(C(=O)NC(CO)CO)c1I [Iopamidol] | 93.8
COC(=O)C1=C(C)NC(C)=C(C(=O)OCCSc2ccccc2)C1C (stereo unspecified) | 110
CC1Cc2ccccc2N1NC(=O)c1ccc(Cl)c(S(N)(=O)=O)c1 (stereo unspecified) [Indapamide] | 70.1
CO/N=C(\C(=O)N[C@@H]1C(=O)N2C(C(=O)O)=C(Cn3ccc(=N)n3CCO)CS[C@H]12)c1csc(N)n1 [Cefoselis sulfate] | 98.3
C=CC(=O)Nc1ccc2ncnc(Nc3cccc(Br)c3)c2c1 | 80.7 ± 1.2
CO/N=C(\C(=O)N[C@@H]1C(=O)N2C(C(=O)O)=C(COC(N)=O)CS[C@H]12)c1ccco1 [Cefuroxime sodium salt] | 101
O=C(NCC(O)CO)c1c(I)c(C(=O)NCC(O)CO)c(I)c(N(CCO)C(=O)CO)c1I (stereo unspecified) [Ioversol] | 102
Nc1ccc(S(=O)(=O)Nc2ccnn2-c2ccccc2)cc1 [Sulfaphenazole] | 97.1
COc1cc(/C=C(\C#N)C(N)=O)cc(CSc2nc3ccccc3s2)c1O | 109
CCOCC(O)COc1ccc(NC(=O)CC[S+](C)C)cc1 (stereo unspecified) [Suplatast tosylate] | 97.5
COc1cc(C#N)ccc1S(=O)(=O)Nc1ccc2c(c1)cc(C)c(=O)n2C | 109
O=C(O)C1=CCCNC1 [Guvacine hydrochloride] | 106
Cc1cc(CC(=O)O)n(C)c1C(=O)c1ccc(Cl)cc1 [Zomepirac sodium salt] | 91.7
CCCCCCCCCCCCCCCC(=O)O[C@@H]1[C@@H](O)[C@@H](O)[C@@H]([C@H](NC(=O)[C@@H]2C[C@@H](CCC)CN2C)[C@H](C)Cl)O[C@@H]1SC [Clindamycin palmitate HCl] | 106
CC(C)=CCC/C(C)=C/CC/C(C)=C/CSCC(=O)O [Farnesylthioacetic acid] | 96.1

Structure (SMILES) | mean cytoplasmic OPP incorporation
CC#CCOC(=O)C1=CCCN(C)C1 [Arecaidine but-2-ynyl ester tosylate] | 97.6
C[C@H](CCC(=O)O)[C@H]1CC[C@H]2[C@@H]3CC[C@@H]4C[C@H](O)CC[C@]4(C)[C@H]3C[C@H](O)[C@]12C [Deoxycholic acid] | 99.4
C[C@H](CCC(=O)O)[C@H]1CC[C@H]2[C@@H]3CC[C@@H]4C[C@H](O)CC[C@]4(C)[C@H]3C[C@H](O)[C@]12C [Sodium Deoxycholic acid] | 114
O=C(NCCS(=O)(=O)c1ccc(C(F)(F)F)cn1)c1ccc(Cl)cc1 | 96.6
C=C1CC[C@H](O)C/C1=C/C=C1\CCC[C@]2(C)[C@@H]([C@H](C)CCCC(C)(C)O)CC[C@@H]12 [25-Hydroxyvitamin D3] | 110
C=C1CC[C@H](O)C/C1=C/C=C1\CCC[C@]2(C)[C@@H]([C@H](C)CCCC(C)(C)O)CC[C@@H]12 [Calcifediol] | 103
CC(C)CC(=O)Nc1n[nH]c2c1CN(C(=O)C1CCN(C)CC1)C2(C)C | 65.9
OC(c1ccccc1)C1CCN(CCc2ccccc2)CC1 (stereo unspecified) | 98.2
COc1ccc(NC(=O)c2cc(OCCCN(C)C)nn2Cc2ccccc2)cc1 [CFM 1571 hydrochloride] | 102
Nc1nc(=O)c2nc(CNc3ccc(C(=O)N[C@@H](CCC(=O)O)C(=O)O)cc3)cnc2[nH]1 [Folic acid] | 104
CC(=O)N[C@@H](CC(C)C)C(=O)O [N-Acetyl-L-leucine] | 104
Nc1nc(F)nc2c1ncn2[C@@H]1O[C@H](CO)[C@@H](O)[C@@H]1O [Fludarabine] | 101.3 ± 0.22
Nc1nc(F)nc2c1ncn2[C@@H]1O[C@H](CO)[C@@H](O)[C@@H]1O [Fludarabine (Fludara)] | 99.4
CC[C@H]1OC(=O)[C@H](C)[C@@H](O[C@H]2C[C@@](C)(OC)[C@@H](O)[C@H](C)O2)[C@H](C)[C@@H](O[C@@H]2O[C@H](C)C[C@H](N(C)C)[C@H]2O)[C@](C)(O)C[C@@H](C)/C(=N\OCOCCOC)[C@H](C)[C@@H](O)[C@]1(C)O [Roxithromycin] | 107
CC[C@H]1OC(=O)[C@H](C)[C@@H](O[C@H]2C[C@@](C)(OC)[C@@H](O)[C@H](C)O2)[C@H](C)[C@@H](O[C@@H]2O[C@H](C)C[C@H](N(C)C)[C@H]2O)[C@](C)(O)C[C@@H](C)/C(=N\OCOCCOC)[C@H](C)[C@@H](O)[C@]1(C)O [Roxithromycin (Roxl-150)] | 113
CN(C)Cc1c(C(=O)NCCOc2ccc(C(=O)NO)cc2)oc2ccccc12 | 56
Nc1nc(=S)c2ncn([C@@H]3O[C@H](CO)[C@@H](O)[C@H]3O)c2[nH]1 [Thioguanosine] | 61
O=C1CN2Cc3c(ccc(Cl)c3Cl)N=C2N1 [Anagrelide HCl] | 103
Nc1nc(Cl)nc2c1ncn2[C@@H]1O[C@H](CO)[C@@H](O)[C@@H]1F [Clofarabine] | 85.8
Cc1cc(C)c(N(Cc2ccccc2)S(=O)(=O)c2ccc(OCCNC(=O)c3cc4ccccc4o3)cc2)c(C(=O)NO)c1 | 103
COc1ccc(-c2cc(=O)c3c(O)cc(O)cc3o2)cc1O [Diosmetin (Luteolin 4-methyl ether)] | 116
C[C@@H](N)[C@H]1CC[C@H](C(=O)Nc2ccncc2)CC1 | 101 and 99.2
c1cnc2cc3c(cc2n1)[C@@H]1CNC[C@H]3C1 [Varenicline tartrate] | 102
